Hit rate of the full screen: of about 320,000 compounds, about 9,100 (2.8%) were called active. The inconclusive results got no clear call from the source; some entries with a clear call stand among them for comparison. The call rests on the fitted dose curve; in most records, active means well fitted activation curve with a large enough effect; inconclusive means small, poorly fitted or top-dose-only effect; inactive means no such curve, though single readings can be large or run the other way. A potency beside an inconclusive call is a rough fit, not a confirmed value.
Experiment: qHTS Assay for Rab9 Promoter Activators; further: nearly all actives have a fitted effect of over 60% in size
Conditions: Huh7 Rab9 promoter-luciferase reporter, luminescence, 24 h; series mostly up to 9.22 µM
In short: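 Steps: seed 1500 Huh7 Rab9-luc cells per well, rest 2 h at 37 °C; add compound in DMSO; incubate 24 h; add luciferase reagent, 10 min ambient; read luminescence.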
Potency means the concentration at half of the fitted maximal effect; tags describe the fitted curve by direction and shape.

Potency, active:
Nn1c(-c2cccs2)nc2sc3c(c2c1=O)CCCC3 6.31 µM, Cc1ccc(-c2nc3cc(NC(=O)C(C)C)ccc3o2)cc1C 0.126 µM, Cc1ccc(-c2nc(-c3ccncc3)no2)cc1Cl 3.16 µM, COc1ccc(Cn2c(-c3ccco3)nc3oc4cc(OC)ccc4c(=O)c3c2=O)cc1 3.98 µM, CN(CC1CCCCO1)C(=O)c1cc(COc2ccc(F)cc2Cl)on1 (stereo not given) 2.82 µM, O=C(O)c1cccc(N/N=C/c2sc(N3CCOCC3)nc2-c2ccccc2)c1 2.82 µM, CCOCC(=O)Nc1c(C(=O)Nc2ccc3c(c2)OCCO3)oc2ccccc12 0.708 µM, Cn1c(-c2ccco2)nc2cc3ccccc3cc21 3.98 µM, CSc1nnc(NC(=O)c2ccc3c(c2)OCO3)s1 0.112 µM, CCc1ccc(C2=NN(S(C)(=O)=O)C(c3cccs3)C2)cc1 (stereo not given) 1.58 µM, COc1ccc(-c2ccn(-c3cccc(F)n3)n2)cc1 2.24 µM, O=C(Nc1ccc(F)cc1)c1cc2ccccc2o1 3.16 µM, O=C(Nc1ccccc1F)Nc1ccccc1F 2.51 µM, Cn1ccnc1SCC(=O)N1CCc2ccccc21 2.82 µM, COc1cccc(NC(=O)c2ccccc2Br)c1 3.55 µM, C#Cc1cccc(NC(=O)c2ccc(Cl)cc2Cl)c1 1.12 µM, O=C(NC1CCCCCCC1)c1ccc(F)cc1 1.41 µM, Cc1cccc(NC(=O)c2cnn(-c3ccccc3)c2C)c1C 3.98 µM, O=C(NCCc1ccccc1)c1ccccc1NC(=O)C1CCCO1 (stereo not given) 1.26 µM, O=C(CN1CCCCC1)Nc1scc2c1c(=O)oc1ccccc12 2.82 µM

Potency, inactive:
CCC(=O)N1c2ccc(S(=O)(=O)NCc3ccccc3)cc2CC1C (stereo not given), CCc1ccc(NS(=O)(=O)c2ccc3[nH]cc(C(=O)N4CCc5ccccc54)c(=O)c3c2)cc1, CNC(=S)N(CCCN(C)C)Cc1cc2cc3c(cc2[nH]c1=O)OCCO3, CCOc1ccc(NC(=O)Nc2ccc(Cc3ccncc3)cc2)cc1, COc1ccc2c(c1OC)C(=O)N(c1nc(SC)n[nH]1)C2=O, CC(=O)Nc1ccc(Nc2nc(-c3sc(C)nc3C)cs2)cc1, COc1cccc(NC(=O)N2CCCC2C(=O)NC23CC4CC(CC(C4)C2)C3)c1 (stereo not given), CCOC(=O)c1cccc(C2=CC(=O)C[C@H](c3ccc(OC)c(OC)c3)C2)c1, O=C(NCC1CCCO1)C1CC(c2ccccc2Cl)=NO1 (stereo not given), CC(C)(C)C(=O)CSc1nc2ncc(Br)cc2[nH]1, Cc1c(C(=O)N2CCN(c3ccc([N+](=O)[O-])cc3)CC2)oc2ccccc12, Cc1ccc(NC(=O)c2cc(-c3cccs3)nc3ccccc23)nc1, CN(C)c1nc(NCc2ccccc2)nc(N/N=C/c2ccccc2F)n1, O=c1ccn(Cc2ccc(F)cc2)c2ccnc(C(F)(F)F)c12, CC(C)(C)NS(=O)(=O)c1ccc(NS(C)(=O)=O)cc1, COc1ccccc1NC(=O)CN(c1ccc([N+](=O)[O-])cc1)S(=O)(=O)c1ccccc1, CCC1(CC)NC(=O)N(CC(=O)Nc2sc3c(c2C(N)=O)CCC3)C1=O, COc1ccc(CN2CCN(C(=O)c3ccc(CNS(=O)(=O)c4ccc(C)cc4)cc3)CC2)c(OC)c1OC, COc1ccc(-c2csc3ncnc(N4CCN(c5ccccc5Cl)CC4)c23)cc1, CCN1C(=O)[C@H]2[C@@H](c3ccc(OC)cc3)N3C(=O)CN(CCOC)C(=O)[C@@]3(Cc3ccccc3)[C@H]2C1=O

Potency, inconclusive:
O=C(Nc1cccc([N+](=O)[O-])c1)N1CCc2ccccc2C1 3.55 µM [activator, partial curve], Cc1ccc(C)c(OCc2cc(C(=O)N3CC[C@@H]4CCCC[C@H]4C3)no2)c1 2.82 µM [activator, partial curve], CCc1ccc(NC(=O)CSc2nc3c(c(=O)n(C)c(=O)n3C)n2C)cc1 1 µM [activator, single point], CCCCOc1ccc(C2CCC(C(C)=O)C(C)C2)cc1 (stereo not given) 3.55 µM [activator, single point], Clc1ccc(CSc2ccc(-c3ccccn3)nn2)cc1 3.16 µM [activator, partial curve], O=C(/C=C/Nc1cccc(C(F)(F)F)c1)c1ccco1 3.98 µM [activator, single point], CCc1ccc(C(=O)CCC2CCCCC2=O)cc1 (stereo not given) 3.55 µM [activator, single point], CC(=O)c1cnc(Nc2cccc(Cl)c2Cl)s1 4.47 µM [activator, single point], COC(=O)c1ccc(OCC(=O)c2cccc(OC)c2)cc1 1.12 µM [activator, partial curve], CNC(=S)N/N=C/c1ccc(N2CCOCC2)s1 2.82 µM [activator, partial curve], Cc1cc(C)n(CCN(C)Cc2nc(Cc3ccccc3F)no2)n1 0.891 µM [activator, full curve], O=C1c2ccccc2C(=O)C1c1ccc(Cl)cc1 3.16 µM [activator, partial curve], CCCC(=O)Nc1nnc(-c2ccco2)s1 3.16 µM [activator, partial curve], CC(C)NC(=O)c1ccc2c3n(nc2c1)-c1ccccc1CO3 10 µM [activator, partial curve, poor fit], COCc1cc(C)nc2sc(C(=O)Nc3ccc(OC)cc3)c(N)c12 3.55 µM [activator, single point], O=C1N/C(=N\N=C\c2ccc3ncccc3c2)SC1Cc1ccc(SC(F)F)cc1 (stereo not given) 3.16 µM [activator, single point], COc1ccc(C(=O)Nc2cccnc2)cc1 3.55 µM [activator, single point], O=C(CSc1ccccc1C(=O)O)c1ccc([N+](=O)[O-])cc1 5.01 µM [activator, single point], Cc1ccc(Cn2ccc(C3CC3)n2)cc1 3.55 µM [activator, single point], O=C(COc1ccc(Cl)cc1)Nc1ccccc1CO 3.16 µM [activator, partial curve], CC1CCC(NC(=O)CCNS(=O)(=O)c2ccccc2)CC1 (stereo not given) 5.62 µM [activator, single point], Cc1ccc(OCC(=O)Nc2cccc(O)c2)cc1C 5.62 µM [activator, single point], Oc1ccccc1/C=N/NC(=S)NC1CC2C=CC1C2 (stereo not given) 2.82 µM [activator, partial curve], CC(=O)c1ccc(NC(=O)Nc2cccnc2)cc1 2.24 µM [activator, partial curve], COc1ccc2sc(NC(C)=O)nc2c1 3.55 µM [activator, single point], CCCCc1cc(O)c(CCCC)c(O)c1 6.31 µM [activator, partial curve], COC(=O)N1N=C(c2ccc(Br)cc2)CC1(O)C(F)(F)F (stereo not given) 2.51 µM [activator, partial curve], S=c1nc(-c2ccccc2)oc2c1CCCC2 1.41 µM [activator, partial curve], C/C(=N\NC(=O)c1cc(C(C)C)[nH]n1)c1ccncc1 3.55 µM [activator, partial curve], CC(=O)c1ccc(Nc2nc(C)cc(C)n2)cc1 2.51 µM [activator, partial curve], COc1cc(OC)cc(C(=O)Nc2cccc(-c3ccc(N4CCOCC4)nn3)c2)c1 2 µM [activator, partial curve], C=CCn1c(SCC(C)=O)nc2scc(-c3ccc(C)o3)c2c1=O 3.98 µM [activator, single point], Nc1nccc(-c2ccc(-n3cccc3)cc2)n1 1.41 µM [activator, partial curve], O=C(O)COn1c(-c2ccccc2)nc2ccc([N+](=O)[O-])cc21 3.98 µM [activator, partial curve], Cc1ccc2nc(NCc3ccccc3)[nH]c2c1 0.794 µM [activator, full curve], CCCCC(=O)Nc1sc2c(c1C#N)CC(C)(C)OC2 1.58 µM [activator, partial curve], O=C(OCc1ccccn1)c1ccc(COc2ccc3ccccc3c2)o1 0.501 µM [activator, full curve], CCOC(=O)Nc1ccc2c(c1)OCO2 3.98 µM [activator, partial curve], CC1CCN(CCCNC(=O)C2CCN(S(=O)(=O)N3CCC4(CC3)OCCO4)CC2)CC1 1.26 µM [activator, single point], c1coc(C2Nc3ccccc3-c3nc4ccccc4n32)c1 (stereo not given) 3.98 µM [activator, single point]

Reference: PubChem BioAssay AID485297 (National Center for Advancing Translational Sciences (NCATS), 2010)
